Measured values from the supplement of paper PMC3334620.
Whole data set: some 33,000 sequences, median “E-score (-0.5 to 0.5)” near -0.017, cut for the highest 2% near 0.3. Some of the results follow.

biological target: T1, Sut1 (UniProt P53032); assay: PBM E-score (8-mer binding enrichment) (E-score (-0.5 to 0.5)); higher = stronger / more preferred TF binding; most listed sequences are background and not binding sites; conditions: protein concentration: 200 nM; construct: GST-full length
T1 sequence: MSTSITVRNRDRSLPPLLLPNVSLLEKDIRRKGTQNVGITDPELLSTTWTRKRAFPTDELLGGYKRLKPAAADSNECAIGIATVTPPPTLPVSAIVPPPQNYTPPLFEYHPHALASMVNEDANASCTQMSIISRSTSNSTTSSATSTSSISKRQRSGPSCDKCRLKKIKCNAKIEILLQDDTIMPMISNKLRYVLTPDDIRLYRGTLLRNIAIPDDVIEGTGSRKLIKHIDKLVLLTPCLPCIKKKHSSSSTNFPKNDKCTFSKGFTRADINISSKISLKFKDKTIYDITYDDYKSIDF
Method: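 Universal 'all 10-mer' protein binding microarrays (Agilent AMADID 015681) probed with GST-tagged S. cerevisiae TFs (full-length or DBD) made by in vitro transcription/translation (PURExpress), about 100-200 nM. Bound TF was detected with fluorescent anti-GST. Each ungapped 8-mer (which stands for itself and its reverse complement) is scored by the PBM enrichment score (E-score), a modified Wilcoxon-Mann-Whitney statistic from -0.5 to +0.5, computed with the Universal PBM Analysis Suite. Scale: above 0.35 generally sequence-specific binding.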

Point of comparison: ATTGGGTA, “PBM E-score” value 0.0525. Against it:
- GAGTTGAC — higher, 0.153
- GAGCCAAC — lower, -0.0698
- CAGCGATG — lower, -0.0914
- AGTTCCCG — lower, -0.116
- AGCAAGAA — higher, 0.104
- AACTAGGC — lower, -0.0715
- CGCTTCCG — higher, 0.158
- GTCTGCAC — lower, -0.202
- CTTTGCTC — lower, 0.00219
- AAAGAGCC — lower, -0.168
- ATGGCCTG — lower, -0.304
- AGCTTAAG — lower, -0.0922
- TAGCTGAA — lower, 0.0295
- ACCGCCCC — lower, -0.196
- ACATCACG — lower, 0.0369
- TACACTAA — higher, 0.143
- ATGAGATG — lower, -0.0425
- ACGGTCCA — lower, -0.177
- CCCCGCTC — lower, -0.23
- GCTATATA — higher, 0.118
- CGATCAAC — lower, -0.0996
- GAACGTCA — lower, -0.195
- CCGCCAGC — lower, -0.0274
- GGAAGAGA — lower, 0.0239
- CGGTATTA — higher, 0.135
- ACAGATGG — lower, -0.0956
- ACACGTGT — lower, -0.38
- ATGGTCGA — lower, -0.0153
- AGGATGAC — lower, -0.248
- GGAGACTA — higher, 0.0756
- GATATGGC — lower, -0.172
- ATTTCATG — lower, -0.00066
- ATTGAGTA — higher, 0.198
- AGACAGAA — higher, 0.0734
- CTGTTGGA — lower, 0.0447
- CGAAATGA — higher, 0.0558
- CAGAAGGC — lower, -0.0672
- CCGGGAGG — lower, -0.167
- AGCGGGAT — lower, -0.216
- AAGGACCA — lower, -0.0882
- ATATCGCA — lower, -0.162
- CTCCCTAC — lower, -0.138
- GGGCGCAC — lower, -0.267
- CGGATAAC — higher, 0.264
- GAACCGAC — higher, 0.0902
- CAGTATCC — higher, 0.0864
- ATAAAATG — higher, 0.289
- ACTCTGGC — lower, -0.0886
- AATATTAC — higher, 0.28
- CGTGGTCA — lower, -0.251
- GCGCGTTA — lower, -0.0394
- AGCGTCAA — lower, -0.0624
- AGAGTCAT — lower, -0.183
- ACTTCGAA — lower, -0.0295
- ATTGACGC — lower, -0.0771
- ATAACAAT — higher, 0.282
- TAAGGGGA — lower, -0.135
- ACCCCCAC — lower, -0.411
- ATCATCGG — higher, 0.233
- GAAAACGC — lower, -0.0831
- CCACAGAA — lower, -0.0429
- AACACGAT — higher, 0.0685
- AATCGCAC — lower, -0.0551
- ATTTATTC — higher, 0.243
- GATCGATA — lower, 0.0121
- GGTACATA — higher, 0.178
- ACTAGAAC — higher, 0.253
- CTCATAGC — lower, -0.0832
- ACTTGCCA — lower, -0.104
- ATGTGAGG — lower, -0.0862
- GAATTTTA — higher, 0.251
- AGGGGGAT — lower, -0.113
- CACTTAGG — lower, -0.175
- ATTATAGA — higher, 0.25
- CAGGGGAG — lower, -0.324
- CTCTTCGC — lower, -0.0209
- CGGTTACG — lower, -0.0542
- GCAACTCA — higher, 0.0595
- ACAATAAC — higher, 0.205
- CCGGCGAC — lower, -0.0592
- AGGGTTCC — lower, -0.0423
- CTGAAGCA — lower, -0.0713
- ACAAAAGG — higher, 0.151
- CCGCATCC — lower, -0.0678
- TAGCCTGA — lower, 0.0143
- CTACCCAG — lower, -0.18
- ACGTAATA — higher, 0.148
- GGCCCTTA — lower, -0.281
- GGGCGAAA — lower, 0.0444
- ATTCTGCC — lower, -0.0702
- AAGTTCTG — lower, -0.0216
- TAGCAGGA — lower, -0.0767
- AATAGAAG — higher, 0.126
- CAGAGACC — lower, -0.142
- CTTAGAAA — higher, 0.0731
- CGCGCGGA — higher, 0.196
- CTCGCCTC — lower, -0.277
- CTGGATAC — lower, -0.194
- CTGCTCGC — lower, -0.163
- AACCTCGG — higher, 0.174
- GGTTAGAC — higher, 0.0526
- AGTTAGAT — lower, 0.00854
- AGAGACTG — lower, -0.211
- ACTCGCCA — lower, -0.144
- ACCGAGCA — higher, 0.205
- ATCACCGC — lower, -0.164
- GGAATGCA — higher, 0.119
- ACGAGTTG — lower, -0.052
- ACGCGTTA — lower, -0.12
- GTTTATCA — higher, 0.176
- AACTAAGT — higher, 0.103
- CGTGAGAG — lower, -0.355
- GGCCAAGA — lower, -0.19
- CCTTCACG — lower, -0.0548
- CCCTGCAG — lower, -0.195
- CCAAAGTC — lower, 0.0256
- CGTTTTGC — lower, 0.00155
- GGCTGGAA — lower, -0.169
- ATGTGTCC — lower, -0.091
- CTCGCACA — lower, -0.138
- GCTGGGGA — lower, -0.314
- CTGACAGC — lower, -0.189
- CAAAAACC — higher, 0.225
- GCATTACA — lower, -0.0955
- CTATTCAC — higher, 0.116
- AAAACCCG — higher, 0.0707
- CAAGAAGA — higher, 0.165
- AAGAGTGT — lower, 0.0481
- GATAGGAC — lower, -0.185
- ACATCACT — lower, 0.00696
- CATCAACG — lower, -0.0773
- GGGTTAGA — lower, -0.16
- CAGCAATC — lower, -0.00135
- ACGACATG — lower, 0.0335
- TGGTACCA — lower, -0.0181
- ACCTACAT — lower, -0.0217
- ACGGTACT — lower, -0.0859
- GGATAGAC — lower, -0.208
- GGGGCTAC — lower, -0.225
- CGCAAGAG — lower, -0.155
- CACGAACC — lower, 0.00159
- AACATGAT — higher, 0.0802
- AAACACAC — lower, 0.0419
- TAATCCTA — lower, 0.0332
- AAGCGATC — lower, -0.0122
- CGCCGAAA — lower, -0.00015
- CGGACATC — higher, 0.406
- TATGGAAA — higher, 0.158
- CCTACTAG — lower, -0.109
- CAGGATCA — lower, -0.154
- CAGGGTAA — lower, -0.171
- GGTCAAGA — lower, -0.0819
- AGTGGATC — lower, -0.0112
- ATATGGCG — lower, -0.175
- CGCGGACC — higher, 0.277
- AAAATAAC — higher, 0.12
- AGCACACG — lower, -0.157
- CACGTGAA — lower, -0.0385
- AGCCCAAT — lower, -0.0804
- ACGAATGC — lower, -0.0365
- GTCGGCAC — lower, -0.0576
- ACTTTTCA — lower, 0.0168
- CCACTGGG — lower, -0.25
- CCTTTGTA — lower, -0.125
- AGGCAATC — lower, 0.0365
- CGGGATCA — lower, -0.148
- AAGTACGT — lower, 0.0407
- ATCGCTTG — lower, -0.258
- ACTTTCAG — lower, 0.0286
- GCACTCCA — lower, -0.125
- CACTCCGC — higher, 0.367
